# Experimental data published in PubChem BioAssay AID463173 (ICCB-Longwood Screening Facility, Harvard Medical School, 2010).
# In all, about 52,000 compounds went through this assay and about 1,700 (3.3%) were called active. No stated cut-off is given here; in the data, active means survival mostly below about 52% (no sharp cut-off); inactive means mostly above about 56%. The list shows a part of the results.
# System: Wild type
# Test: S. aureus survival, RN4220 and DeltatarO strains – OD600, teichoic acid synthesis inhibitors, primary screen (AID 463173)
# Details: S. aureus RN4220 wild type/DeltatarO growth, OD600, 18 h, hits give low values, screened at 18.75 µg/mL (by protocol)
row,SMILES,survival
1,Fc1ccc(-c2cn3cc(Cc4ccccc4)sc3n2)cc1,inactive: 95%
2,COc1ccc(NC(=O)CSc2nc(-c3ccco3)cc(C(F)(F)F)n2)cc1Cl,inactive: 62%
3,CCCN(CCC)C(=O)Cn1c(=O)n(-c2ccc(Cl)cc2)c(=O)c2c3c(sc21)CCCC3,inactive: 89%
4,COc1ccc(CNC(=O)c2cnc(N3CCOCC3)c3ccccc23)cc1,inactive: 84%
5,N#Cc1ccccc1NC(=O)CSc1nnc(N)s1,inactive: 86%
6,CCCCS(=O)(=O)c1nc(-c2ccc(Br)cc2)cc(-c2ccccc2)c1C#N,inactive: 131%
7,COc1ccc(-n2ncc(C(=O)N3CCOCC3)c2C2CCN(C(=O)OC(C)(C)C)CC2)cc1,inactive: 65%
8,Cc1cccc(NC(=O)CCc2c(C)nc3c(c(C)nn3C(C)(C)C)c2C)c1C,inactive: 71%
9,O=C1COc2ccc(-c3cc(-c4ccccc4)c4c(n3)-c3cc(Cl)ccc3OC4)cc2N1,inactive: 66%
10,CCN(C(=O)c1cn(CC)c(=O)c2cc(OC)c(OC)cc12)c1ccc(C)c(C)c1,inactive: 146%
11,Cc1ccc(N2CCN(S(=O)(=O)c3ccc4[nH]c5c(c4c3)CCCCC5)CC2)c(C)c1,inactive: 135%
12,O=C(Nc1cccc(F)c1F)C1CCN(c2ncccn2)CC1,inactive: 89%
13,CC(=O)N1N=C(N)SC1c1ccccc1 (stereo not given),inactive: 104%
14,COc1ccc(-c2nc3c(c(SCC(=O)N4CCCCC4)n2)Cc2c(CO)cnc(C)c2O3)cc1,inactive: 101%
15,COC(=O)c1cc(NC(=O)c2ccc3c(c2)NC(=O)c2ccccc2S3)cc(C(=O)OC)c1,inactive: 100%
16,CSc1cccc(NC(=O)Cn2ncn3c(cc4ccccc43)c2=O)c1,inactive: 72%
17,CCSc1nn(CC(=O)Nc2ccc(C(=O)OC)cc2)c(N)c1S(=O)(=O)c1ccc(C)cc1,inactive: 32%
18,COc1cccc(-n2nnc(-c3nc(-c4ccccc4F)no3)c2C)c1,inactive: 82%
19,O=C(Nc1ccc(F)cc1)N1CCN(C(=O)c2nsc3ccccc23)CC1,active: 14%
20,COC(=O)c1cc2occc2n1CC(=O)Nc1ccc(C(C)C)cc1,inactive: 79%
21,Cc1cccc(N2CCN(C(c3ccccc3)c3nnc(-c4ccccc4Cl)o3)CC2)c1C (stereo not given),inactive: 52%
22,COc1ccc(OC)c(CNC(=O)CN2CC(C)Sc3ccccc32)c1 (stereo not given),inactive: 92%
23,CCOc1ccccc1NC(=O)C(c1ccccc1)N1Cc2ccccc2C1=O (stereo not given),inactive: 80%
24,Fc1ccccc1N1CCN(c2ncc3c(n2)CCN(Cc2cc(Br)cs2)C3)CC1,inactive: 75%
25,Cn1nnc2c(N3CCN(c4cccc(C(F)(F)F)c4)CC3)ncnc21,inactive: 101%
